Read counts are not given, so values of variants with three or more changes are uncertain.
B1: LINE1-full (parent)
chain: UACGUAGGUGGUUUUCCCCUGAUAGUGCUAAGGGGGCCUGGAAGUUUGGACUGGGCAGAGCUCAACACAGCGUGGCAAAGUGGCUGUGGCUAGACUGCCUCUCUGGAUUCCUCGUCACUCAGCAGGGCAUCUCUGAGAGAAAUGCC

Variants of: B1
Assay: self-cleavage, relative activity (ratio to wild type); higher = more cleavage; in vitro, sequencing; the parent is a self-cleaving ribozyme
U12C A79G C111U A141U gave a self-cleavage of 1.37.
U12C A69G A129U gave a self-cleavage of 0.68.
Variant U12C A22C U47A A136G A142G has a self-cleavage of 2.17.
Work on U12C U91C A136G yielded a self-cleavage of 0.63.
In the case of U12A U100C A124G, the self-cleavage is reported as 1.47.
Work on U12C A121G G122C yielded a self-cleavage of 2.3.
For U12C U85C G86A A136U, the self-cleavage was 0.06.
Work on U12C G89A U100C yielded a self-cleavage of 0.
U12C A22G U73C U132C showed a self-cleavage of 1.84.
In the case of U12A U46C A79G, the self-cleavage is reported as 0.59.
With U12C U29C C145U the self-cleavage was 1.26.
Work on U12C A59U U115C yielded a self-cleavage of 1.48.
In the case of U12C C17U U102C U134A, the self-cleavage is reported as 0.
With U12C A57G U91C A141G the self-cleavage was 0.6.
For G11C G83U A136C, the self-cleavage was 0.86.
G11U U46C G55A C133U gave a self-cleavage of 0.77.
In the case of U12C U39A U87A A129G A142G, the self-cleavage is reported as 0.27.
In the case of G11U U15C A69G, the self-cleavage is reported as 0.55.
Work on G11A A31U G36C C68U G82A G114A A129G yielded a self-cleavage of 0.1.
For U12C U29C U87C, the self-cleavage was 0.
Work on U12A U46A U115C yielded a self-cleavage of 1.87.
U12C G33A A67U U100C showed a self-cleavage of 0.32.
U12C G55U A69G A79G A94U A136G showed a self-cleavage of 0.44.
In the case of U12C A57U C146A, the self-cleavage is reported as 0.17.
Variant U12C A79G A136U has a self-cleavage of 1.29.
U12C U23C G36A A67U gave a self-cleavage of 0.24.
U12C U46C G55A showed a self-cleavage of 0.92.
Work on U12C G89A U100C U115C yielded a self-cleavage of 0.08.
Work on U12A U13C U85C yielded a self-cleavage of 0.16.
Variant G11A U85C A94G A138G A141G has a self-cleavage of 0.
Work on U12C G25A U96C yielded a self-cleavage of 0.19.
With U12C A92G U112C A117U the self-cleavage was 0.
For U12C C19A U108C U115C, the self-cleavage was 1.67.
Variant U12A U62C U96C U112A A142G has a self-cleavage of 0.
With U12C A65G A107G the self-cleavage was 0.
With G11A U81C U104C A141G the self-cleavage was 2.78.
Work on U12C U13C U14C A129U yielded a self-cleavage of 1.02.
Work on U12C A24U A138G U143C yielded a self-cleavage of 1.88.
Work on U12C A42G A50G yielded a self-cleavage of 0.66.
In the case of U12C A43G G74U U96C, the self-cleavage is reported as 0.02.
Work on U12C C16U A142G yielded a self-cleavage of 1.29.
Variant U12C U15A A77U A92G has a self-cleavage of 0.27.
Work on U12A G40A U85C U87C yielded a self-cleavage of 0.05.
In the case of G11A U14C A129G, the self-cleavage is reported as 0.71.
Variant U12C U81C C98U G106U has a self-cleavage of 0.78.
For G11A A22U A42G, the self-cleavage was 1.58.
Work on U12C U73C A107G yielded a self-cleavage of 1.02.
For U12C U15G U119C, the self-cleavage was 1.67.
Variant U12C U47C U52C A138G has a self-cleavage of 2.76.
With U12C A78U A121U the self-cleavage was 2.
U12C A64U A124U gave a self-cleavage of 1.13.
Variant U12C A31G U130C has a self-cleavage of 1.34.
Variant U12C A78G U96A U134G A138G has a self-cleavage of 0.07.
With U12C U14C C95A the self-cleavage was 0.37.
G10U A24U U47C U112C showed a self-cleavage of 0.92.
For U12C U14C U39C U47C A59U A79G, the self-cleavage was 2.04.
G10U U20C U62C showed a self-cleavage of 0.16.
Work on U12C A57G A77G U81A yielded a self-cleavage of 2.54.
Work on U12C G27A G35C A79G yielded a self-cleavage of 0.82.
Variant U12C A57U C133A has a self-cleavage of 0.05.
Work on G11U G72A A78G yielded a self-cleavage of 1.27.
U12C U20C U45C U102C gave a self-cleavage of 0.
For U12C U14A U26A A59G A67G A77U, the self-cleavage was 0.14.
Work on U12C U15C G36A A124U A141G yielded a self-cleavage of 0.84.
U12C U73A U81A C98A showed a self-cleavage of 0.59.
Variant U12A U46C A79G U115C A117G C123A has a self-cleavage of 1.84.
Variant U12C U46C A69G U85C A140G has a self-cleavage of 1.53.
With U12C G25A U47A A65U U87C A141G the self-cleavage was 0.09.
Work on U12C A50U U108C yielded a self-cleavage of 0.97.
Variant G11A U14C U112A A129G A136U C146G has a self-cleavage of 1.49.
In the case of U12C G40U G49U A64G A141G, the self-cleavage is reported as 0.11.
In the case of U12A U14A U26A A65G U96A, the self-cleavage is reported as 0.22.
Work on U12C U62C U100C yielded a self-cleavage of 0.
In the case of U12C U29A G35C A57U A78G C90A U109A, the self-cleavage is reported as 0.06.
For U12C U45A A67G G88A U100C U143A, the self-cleavage was 0.23.
With U12A U14C G49U U119C the self-cleavage was 0.64.
With U12C U115A U132A A140G the self-cleavage was 1.
Work on U12C A31U U39C U52A yielded a self-cleavage of 2.3.
For U12A U26A U81A U102C, the self-cleavage was 1.49.
In the case of U12C A24G U26C, the self-cleavage is reported as 1.21.
For U12C A22U U119A, the self-cleavage was 0.73.
Variant U12C U62C A117G has a self-cleavage of 0.26.
With U12C U23A A42G U47A U81C A140G the self-cleavage was 2.8.
